About 60 (0.1%) of roughly 46,000 compounds were called active. Another 3% or so got no clear call; they are omitted. Calls follow the shape of the dose curve; as a rule, active = well fitted inhibition curve with a large enough effect; inconclusive = small, poorly fitted or top-dose-only effect; inactive = no such curve, though single readings can be large or run the other way. The list shows a part of the results.
Experiment: Primary qHTS assay for Inhibitors of ovarian cancer metastasis using an organotypic tumor microenvironment (TME) model. Also: nearly all actives have a fitted effect of over 65% in size.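 As to activity change, negative = inhibition: plate controls were DMSO wells for no effect and tomatine positive control wells for full effect.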
Conditions: SKOV3ip1-GFP adhesion/invasion on 3D omental model, fluorescence; series mostly up to 45.8 µM; activity change, negative = inhibition: at the top concentration
Outline: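 A 3D layer of primary human omental fibroblasts, mesothelial cells, fibronectin and collagen I, grown 48 hr, received SKOV3ip1-GFP cells in serum-free medium plus compounds at 0.36-46 umol/L. After 2 hr RT and 16 hr 37 C, fixed adherent GFP cells were counted; normalized to DMSO and tomatine.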

outcome, inactive:
O=C(CCS(=O)(=O)c1cccc2nsnc12)Nc1ccc(F)cc1
Cc1nn(-c2ccc(N3CCOCC3)nn2)c(C)c1CCC(=O)NCc1ccc(F)cc1
Cn1ncc2nc(SCC(=O)Nc3ccc(Br)cc3F)n(Cc3ccccc3)c(=O)c21
COc1ccccc1N1CCN(C(=O)CN2C(=O)COc3ccc(S(=O)(=O)N4CCC(C)CC4)cc32)CC1
CCOc1ccc(CCNC(=O)CN2N=C(c3ccccc3)CCC2=O)cc1OCC
COc1ccc(OC)c(CCNC(=O)c2csc3c2CCCCC3)c1
CCn1cc(C(=O)N2CCN(c3ccc(C(C)=O)cc3)CC2)c2cc(OC)c(OC)cc2c1=O
Cc1ccccc1OC(=O)CSc1nnc(-c2ccc(F)cc2)o1
O=C(Cn1c(=O)n(-c2ccccc2Cl)c(=O)c2sc3ccccc3c21)NC1CCCCC1
Cc1c(Cl)cccc1NC(=O)C1CCCN(c2nnc(-n3c(C)ccc3C)s2)C1 (stereo not given)
O=C(NCc1ccc2c(c1)OCO2)c1ccc2c(c1)N(Cc1cccc(Cl)c1)C(=O)c1ccccc1S2=O (stereo not given)
CC1CCCN(c2nc3c(S(=O)(=O)c4ccc(C(C)C)cc4)nnn3c3ccsc23)C1 (stereo not given)
CCC1CCCCN1CCCNC(=O)c1c(O)nc2ccccn2c1=O (stereo not given)
COc1cccc(CN2C(=O)c3ccccc3Sc3ccc(C(=O)NCCc4ccc(C)cc4)cc32)c1
COc1ccc(NC(=O)CSc2nc3ccccc3nc2Cc2ccc(C)cc2)cc1Cl
CC(C)(C)c1ccc(S(=O)(=O)Nc2ccc(O)c(Sc3nc4ccccc4s3)c2)cc1

Activity change, negative = inhibition, inactive:
Cc1ccc2oc3c(c(=O)c2c1)C1(C(=O)N(C)c2ccccc21)N(CCCO)C3=O (stereo not given) 23%
Cc1ccc2c(c1)C(c1ccc(F)cc1)N(C(=O)c1ccc(OC(C)C)cc1)CC(=O)N2 (stereo not given) -12.2%
Cc1ccccc1C(=O)Nc1cc(-c2ccc(Cl)cc2)nn1-c1ccccc1 -9.99%
O=C(c1ccccc1)N1c2ncnn2C2(CCCCC2)[C@@H]2CCCC[C@@H]21 -7.53%
COc1ccccc1NC(=O)c1sc2nc3c(cc2c1N)CCCCCC3 -17.1%
Cc1ccc(-n2nnc(C(=O)Nc3cc(F)ccc3F)c2C)cc1F 3.1%
CCOc1ccc(NC(=O)CSc2nc3c(oc4ccccc43)c(=O)n2CCOC)cc1 17.2%
Cc1ccn2c(=O)cc(COc3ccc(NC(=O)c4ccccc4F)cc3)nc2c1 -4.52%
Cc1ccc(NC(=O)C2CCN(c3cc(C)nc4c(-c5ccc(Cl)cc5)c(C)nn34)CC2)c(C)c1 8%
COc1ccc(C(=O)CSc2c(C(C)C)cnc3c2c(=O)n(C)c(=O)n3C)cc1 2.29%
COc1cc2[nH]c(=O)n(CCCC(=O)N3CCN(c4cccc(C(F)(F)F)c4)CC3)c(=O)c2cc1OC -15.7%
CC(=O)c1ccc(NC(=O)CSc2nc(-c3cccc(F)c3)nc3c2c(=O)n(C)c(=O)n3C)cc1 0.806%
Cc1ccc2nc(N(Cc3cccnc3)C(=O)CCS(=O)(=O)c3ccccc3)sc2c1 38.9%
c1cc(-c2sc(-c3ccncc3)c(-c3ccncc3)c2-c2ccncc2)ccn1 -3.35%
Cc1ccc(CN(Cc2ccco2)C(=O)COc2ccc(C(C)C)cc2)cc1 2.55%
COc1ccc(CNC(=O)c2ccc3c(c2)nc2n3CCOC2)c(OC)c1 6.8%
CCCCN(CC)CCCNC(=O)c1cc2c(=O)[nH]c3ccccc3c2s1 9.04%
Cc1cc(C)cc(NC(=O)CN2C(=O)c3ccccc3Sc3ncccc32)c1 5.05%
CN1C(C(=O)Nc2ccc(F)cc2F)=CC(c2ccc3c(c2)OCO3)=NS1(=O)=O 2.66%
CCOC(=O)C1CCN(C(=O)c2ccc3c(=O)n4nc(Nc5cc(C)ccc5C)sc4nc3c2)CC1 7.4%
CCOC(=O)C(C)NC(=O)c1c(C)oc2ncn(CC(C)C)c(=O)c12 (stereo not given) 10.5%
Cc1ccc(CNC(=O)c2cc3c(=O)n(Cc4cccnc4)ccc3nc2C)cc1 0.177%
Cc1ccc(-c2cc(C(F)(F)F)c(C#N)c(SCC(=O)Nc3ccccc3)n2)cc1 -5.83%
COc1cccc(NC(=O)C2CCN(c3nn4cc(-c5ccc(F)cc5)nc4s3)CC2)c1 4.61%
Cc1cccc(C)c1OCc1nc2c3c(-c4ccccc4)c(-c4ccccc4)oc3ncn2n1 5.16%
Cc1cccc(CNC(=O)CCCn2c(=O)c3cccn3c3ccc(F)cc32)c1 -7.23%
CCNC(=O)c1nn(-c2ccccc2C)nc1CO -9.49%
CC(=O)C1=C(c2ccc(C)c(C)c2)N(C(C)=O)n2c(nnc2-c2ccc(Cl)cc2)S1 4.86%
Cc1csc2nc(COc3ccccc3NC(=O)c3ccc(C(C)(C)C)cc3)cc(=O)n12 54.5%
Cc1cccc2c1-c1sc(C(=O)N(C)c3cccc(C(F)(F)F)c3)cc1CO2 -6.45%
COC(=O)N1CCN(Cc2cccc(NC(=O)Nc3ccc(C)nc3)c2F)CC1 5.28%
Cc1c(NC(=O)c2nc3ccccc3nc2N2CCCCC2)cccc1[N+](=O)[O-] -0.922%
Cc1ccc(CN2CCN(CC(=O)Nc3ccc(C)c(C)c3)S2(=O)=O)cc1 2.28%
Cc1ccccc1-n1nc(CO)c(C(=O)NCc2cccs2)n1 -9.74%
N#Cc1cccc(NC(=O)C2CCN(S(=O)(=O)c3ccc4[nH]c(=O)ccc4c3)CC2)c1 0.597%
CN(C)CCCN1c2ccccc2CCc2ccc(Cl)cc21 -8.86%
CCOC(=O)c1cc(C)n(CC2CCC(C(=O)Nc3ccc(C)c(F)c3)CC2)c1C (stereo not given) -9.73%
COc1ccc(N2CC(NC(=O)CCCc3ccccc3)CC2=O)cc1 (stereo not given) 2.23%
CCOc1cc(CNC(=O)NC2COc3ccc(OC)cc3C2)cc(OCC)c1OCC (stereo not given) -5.91%
COC(=O)c1ccccc1NC(=O)Nc1nnc(N2CCC(C)CC2)s1 12.7%
Cc1ccc(C(=O)Nc2ccc(-c3nc4ccccc4s3)cc2C)cc1C -4.51%
CCN(CC)C(=O)CSc1nc2cc3c(cc2c(=O)n1CCCCCC(=O)NCc1ccc(OC)cc1)OCO3 -3.32%
CCN(CCCNC(=O)c1ccc(Sc2ccc(F)cc2)c(NC(C)=O)c1)c1ccccc1 -6.73%
O=C(NCC(c1ccc2c(c1)OCO2)N1CCN(c2ccccc2)CC1)C(=O)Nc1cccc(F)c1 (stereo not given) 2.76%
Cc1ccc(CSC2=Nc3ccccc3C3=NC(CCC(=O)NCc4cccs4)C(=O)N23)cc1 (stereo not given) -3.4%
COc1ccc(C2=C(C)C(=O)N(Cc3ccc(C(=O)Nc4cccc(F)c4)cc3)S2(=O)=O)cc1 -3.82%
Cc1ccc(F)cc1NC(=O)Cn1c(=O)nc(-c2ccccc2F)c2cc(Cl)ccc21 -9.46%
Cc1ccc(-c2nc3c(C)cccn3c2Nc2ccccc2C)s1 2.53%
COc1ccc(-c2csc(-c3nc(-c4ccc(Br)s4)cs3)n2)cc1F -11.6%
COc1cc2c(-c3ccccc3O)nc3c(c(C)nn3-c3ccccc3)c2cc1OC -1.93%
N#Cc1ccccc1NC(=O)CSc1ncn[nH]1 8.78%
O=C(Nc1ccc(-c2nc3cc(NC(=O)c4ccccc4F)ccc3o2)cc1)c1ccccc1F 3.86%
COc1ccccc1C(=O)N1CCCCC1CCN1CCOCC1 (stereo not given) 5.19%
Cc1cccc(NC(=O)Cn2cc(C(=O)C3CCCCC3)c3ccccc32)c1C -0.401%
CC(=O)c1ccc(NC(=O)c2ccc3c(c2)nnn3C2CCCC2)cc1 2.76%
CCOc1ccc(C(=O)CSc2nc3cc(C(=O)NC4CCCC4)ccc3c(=O)n2CC2CCCO2)cc1 (stereo not given) 15.6%
Cc1cccc(C(=O)Nc2ccc(C(=O)OCc3cc(=O)n4c5c(sc4n3)CCCC5)cc2)c1 -10.6%
CN1C(=O)Cc2cc(S(=O)(=O)N3CCN(c4cccc(C(F)(F)F)c4)CC3)ccc21 -6.93%
Cc1ccc(C)c(NC(=O)c2nc(S(C)(=O)=O)ncc2N(Cc2ccc(C(C)(C)C)cc2)Cc2ccco2)c1 0.643%
Cn1c(=O)c2c(nc(Oc3ccc(F)cc3)n2Cc2ccc(F)cc2)n(C)c1=O -4.22%
COc1ccccc1NC(=O)c1sc2nc(C)c(C(=O)Nc3ccc(C)cc3C)c(-c3ccc(Br)cc3)c2c1N 6.83%
Cc1ccccc1CNC(=O)Cn1ccc2cc(S(=O)(=O)N3CCCCC3)ccc21 7.11%
CC(C)=CCCC(C)=CCCC(C)=CCSc1ccccc1C(=O)O -15.4%
CCOc1ccc(C(=O)c2cn(CC(=O)Nc3ccc4c(c3)OCCO4)c3ccc(OC)cc3c2=O)cc1 0.615%
CCCc1nn2c(=O)cc(COC(=O)c3cccs3)nc2s1 7.96%
O=C(NCc1ccccc1)c1cc2sccc2n1Cc1ccc(F)cc1 -3.38%
Cc1ccc(CNC(=O)C(=O)NCC(c2cccnc2)N2CCN(c3ccc(F)cc3)CC2)cc1 (stereo not given) 7.1%
CCOC(=O)c1c(S(=O)(=O)NCC(=O)Nc2cc(C)ccc2OC)c(C)n(C)c1C -5.49%
Cc1ccccc1C(=O)OCc1cc(=O)n2nc(C3CC3)sc2n1 0.523%
Cc1ccc(C(=O)OCc2cc(=O)n3nc(-c4cccs4)sc3n2)cc1 -3.94%
CCOC(=O)N1CCC(NC(=O)c2ccc3c(c2)N(Cc2cc(C)ccc2C)C(=O)c2ccccc2S3(=O)=O)CC1 -13.6%
CCOc1ccc(CCn2c3c(c(=O)[nH]c2=O)C(NC(=O)c2ccccc2)(C(F)(F)F)C(=O)N3)cc1OCC (stereo not given) 4.24%
CCN(CC)c1ccc2cc(-c3nc(-c4ccc(Cl)cc4Cl)cs3)c(=O)oc2c1 -4.07%
COc1ccccc1NC(=O)Cn1c(=O)n(Cc2cccs2)c(=O)c2cccnc21 2.19%
O=C(Cn1cc(SCc2ccccc2F)c2ccccc21)N1CCCCCC1 -8.59%
COc1cccc(-c2cnc(NCc3ccccc3Cl)n2C)c1 -20.5%
CCOc1ccccc1NC(=O)c1cc(S(=O)(=O)NC2CCCC2)ccc1F 3.66%
Cc1ccc(C(=O)Nc2ccc3oc(-c4cccnc4)nc3c2)c(Cl)c1 -16.8%
CC(=O)N1CCCc2cc(S(=O)(=O)N3CCCC(C(=O)Nc4ccc(C)c(C)c4)C3)ccc21 (stereo not given) 5.42%
